Paper PMC4336329 (PLoS ONE, 2015)
About 2,200 (0.71%) of roughly 310,000 compounds showed an effect of 50% or more. The effect is printed as a negative number. Some of the results follow.

These compounds were tested against human ether-à-go-go-related gene (hERG) potassium channel (human, UniProt Q12809) (assay: primary screen, population patch clamp on CHO cells stably expressing hERG).
human ether-à-go-go-related gene (hERG) potassium channel, sequence (Q12809 whole entry, looked up): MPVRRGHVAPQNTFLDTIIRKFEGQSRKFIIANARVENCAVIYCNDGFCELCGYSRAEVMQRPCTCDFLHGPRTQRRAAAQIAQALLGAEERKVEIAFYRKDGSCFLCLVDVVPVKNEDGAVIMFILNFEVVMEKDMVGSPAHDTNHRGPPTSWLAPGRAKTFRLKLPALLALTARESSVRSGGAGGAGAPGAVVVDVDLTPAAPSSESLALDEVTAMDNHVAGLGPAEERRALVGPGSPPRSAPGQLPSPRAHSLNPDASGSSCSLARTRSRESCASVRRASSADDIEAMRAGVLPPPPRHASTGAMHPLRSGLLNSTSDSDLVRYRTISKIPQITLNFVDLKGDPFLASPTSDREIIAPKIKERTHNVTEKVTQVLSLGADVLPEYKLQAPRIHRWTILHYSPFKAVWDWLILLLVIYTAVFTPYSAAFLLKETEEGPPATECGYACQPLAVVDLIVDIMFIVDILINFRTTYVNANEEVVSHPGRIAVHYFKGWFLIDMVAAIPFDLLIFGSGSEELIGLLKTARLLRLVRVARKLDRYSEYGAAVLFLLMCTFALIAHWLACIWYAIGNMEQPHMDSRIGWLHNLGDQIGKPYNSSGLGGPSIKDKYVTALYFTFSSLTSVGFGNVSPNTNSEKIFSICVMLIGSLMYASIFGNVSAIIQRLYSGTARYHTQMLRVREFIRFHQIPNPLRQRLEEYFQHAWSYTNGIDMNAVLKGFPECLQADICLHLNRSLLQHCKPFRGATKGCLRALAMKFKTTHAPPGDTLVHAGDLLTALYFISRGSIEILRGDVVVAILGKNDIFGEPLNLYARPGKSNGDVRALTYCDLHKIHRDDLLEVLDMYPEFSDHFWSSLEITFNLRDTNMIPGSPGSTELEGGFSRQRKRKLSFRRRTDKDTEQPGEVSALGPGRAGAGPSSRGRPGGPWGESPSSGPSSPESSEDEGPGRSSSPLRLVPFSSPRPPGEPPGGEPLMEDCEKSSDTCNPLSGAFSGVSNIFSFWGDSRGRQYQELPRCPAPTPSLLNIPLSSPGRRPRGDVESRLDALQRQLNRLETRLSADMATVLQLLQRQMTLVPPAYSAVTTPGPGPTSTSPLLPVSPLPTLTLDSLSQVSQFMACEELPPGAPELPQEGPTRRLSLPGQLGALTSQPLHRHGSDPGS

Structure (SMILES) | hERG current change (%, negative = inhibition) at 1uM
Cn1nc(C2CC2)cc1NC(=O)CC(CC(=O)O)c1ccccc1 (stereo not shown) | 14.1%
COC(=O)c1[nH]c2ccc(C)cc2c1NC(=O)CN1CCCc2ccccc21 | 9.56%
CN(CC(=O)Nc1cccc(F)c1)C(=O)c1ccc(-c2cccc(C(F)(F)F)c2)o1 | 10.6%
Cc1ccc(Cl)cc1NC(=O)CCNC(=O)N1CC(=O)Nc2ccccc21 | 15.5%
COCCN1C(=O)C(=O)/C(=C(/O)c2ccc(S(=O)(=O)N3CCOCC3)cc2)C1c1ccc(O)c(OC)c1 (stereo not shown) | 15.2%
c1ccc(Cn2nnc3cnccc32)cc1 | 5.52%
C/C(=N\NC(=O)c1ccc(NS(=O)(=O)c2cccs2)cc1)c1ccc(Cl)cc1 | 1.82%
O=C(c1ccccc1)c1c[nH]cc1-c1ccccc1 | 7.33%
Cc1ccc(C2=NS(=O)(=O)N(C)C(C(=O)NC(C)c3ccccc3)=C2)cc1 (stereo not shown) | 8.91%
CC(=O)c1cccc(NC(=O)CNC(=O)c2sc3ccccc3c2Cl)c1 | 9%
CCOC(=O)NN1C(=O)c2ccccc2NC1c1ccccc1O (stereo not shown) | 15%
Cc1c(C=O)c2ccccc2n1CC(=O)O | 19.8%
CCCCC(=O)Nc1ccc(C(=O)NCCc2ccccc2)cc1 | -0.887%
CCCCn1c(N)c(N(Cc2ccccc2OC)C(=O)CCC(C)C)c(=O)[nH]c1=O | 15%
COc1ccc(C(=O)c2cnc(C(C)C)n2C)cc1 | 11.9%
Cc1cc(NC(=O)COC(=O)C2COc3ccccc3O2)no1 (stereo not shown) | 11.3%
Cc1cccc(NC(=O)CSc2nnc([C@@H](N)Cc3ccccc3)o2)c1C.Cl | 7.13%
CCOC(=O)Cc1csc(NC(=O)CN(C)S(=O)(=O)c2cccc3cccnc23)n1 | 0.637%
CC(C)[C@H](NC(=O)c1ccccc1F)C(=O)Nc1nc2c(s1)CCCC2 | 0.953%
COC(=O)c1nnc(-c2ccccc2)c(-c2ccccc2)n1 | 9.12%
CCCOc1nc2ccccc2cc1/C=C/C(=O)O | 1.51%
CC(OC(=O)CNC(=O)c1ccco1)C(=O)N(C)c1ccccc1 (stereo not shown) | 12%
CC(=O)OCCNC(=O)c1cccnc1 | 14.8%

Structure (SMILES) | hERG current change (%, negative = inhibition) at 1uM
CN1CCN(c2nc3c(c(=O)[nH]c(=O)n3C)n2Cc2ccc(Cl)cc2)CC1 | 7.1%
O=S(=O)(CC(c1ccccc1)N1CCCCC1)c1ccc(Cl)cc1 (stereo not shown) | 7.99%
Cc1ccc(S(=O)(=O)NC(CC(=O)O)c2ccco2)cc1 (stereo not shown) | 2.86%
COc1cc(C(N)=O)cc(Br)c1OC | -12.3%
Cc1ccccc1C(=O)NC(=S)Nc1ccc(Cc2ccncc2)cc1 | 11.2%
CCN(CC)CCN(Cc1cc2ccc(C)c(C)c2[nH]c1=O)C(=S)NCc1ccco1 | -21.7%
CCOC(=O)c1sc(NC(=O)COC(=O)c2ccco2)nc1C | 12.5%
CC(C)C(=O)NNC(=O)c1csc(-c2cccs2)n1 | 12.8%
C/C(=N/Nc1cc(-c2ccccc2)nc(-c2ccccc2)n1)c1ccc(O)cc1 | 13.4%
CCOC(=O)c1c(N)nn(C(=O)CC)c1-c1ccccc1 | 10.3%
Cc1cccc(C(=O)NCC(=O)N(C)CC(=O)Nc2ccc(N3CCOCC3)cc2)c1 | 12.7%
O=C(O)/C=C\C(=O)Nc1ccccc1F | 13.3%
CCOC(=O)/C(C#N)=C/c1cccc([N+](=O)[O-])c1 | 16.8%
C=CCSc1n[nH]c(-c2cccs2)n1 | 11.6%
O=C(COc1cc(Cl)c(Cl)cc1Cl)NC(=O)Nc1ccc2c(c1)OCCO2 | 12.2%
CCO[C@@H]1OC(C(N)=O)=C[C@H](c2ccc(Br)cc2)[C@H]1CCCO | 2.68%
CN1CC=C2C(C#N)=C(N)C(C#N)(C#N)[C@H](c3cccc(Cl)c3)C2C1 (stereo partly shown) | 1.39%
COc1ccc(NC(=O)NCc2cccnc2)cc1OC | 19%
COc1cccc(-n2c(=S)[nH]c3c(oc4ccccc43)c2=O)c1 | 11.3%
COC(=O)CCC(=O)OC1(C)C(=O)C=C2C=C(C3CC3)N(CCN3CCOCC3)C=C2C1=O (stereo not shown) | 11.4%
O=C(Nc1nc(-c2ccc(Cl)cc2)cs1)NC1CCCCC1 | 8.27%
CCN(CC)CCNC(=O)c1ccc(CS(=O)(=O)c2ccccc2C)o1 | -4.67%
C/C(=N\NC(=O)c1ccco1)c1ccc(NC(=O)c2cccs2)cc1 | 15.2%

Structure (SMILES) | hERG current change (%, negative = inhibition) at 1uM
Cc1cccc(N2CCN(C(=O)C34CC5CC(CC(C5)C3)C4)CC2)c1C | 13.6%
CCCC(=O)Nc1cc(-c2nn(C)c(=O)c3ccccc23)ccc1OC | -0.736%
COc1ccc(C(=O)Nc2ccccc2N2CCOCC2)cc1S(=O)(=O)N1CCCC1 | 0.608%
C#CCOCCOCCOCCNc1nc(N2CCN(C(=O)Cn3cc(CCCC[NH3+])nn3)CC2)nc(N2CCN(C(=O)[C@H]([C@@H](C)CC)n3cc(CCC[NH+]=C(N)N)nn3)CC2)n1.[Cl-] | 13.6%
Cc1cc(F)ccc1NC(=O)Nc1ccc2c(c1)OCO2 | 10%
CC1(C)CC(=O)C=C(NCCN2CCN(C(=O)Nc3ccccc3)CC2)C1 | -2.86%
O=C(CSc1nnnn1Cc1ccccc1)c1ccccc1F | 13.5%
Cc1ccsc1/C=N/n1cnnc1 | 14.1%
CCOC(=O)c1c(NC(=O)Cn2cnc([N+](=O)[O-])n2)sc(C)c1C | 8.52%
COc1ccccc1OCCNC(=O)Cc1ccc(S(=O)(=O)N2CCOCC2)s1 | 5.3%
COc1ccc(-c2cc(-c3ccc(O)cc3)nc(N)c2C#N)cc1 | 6.2%
O=C(COc1ccc(Cl)cc1)Nc1ccc2c(c1)CCC2 | -0.813%
CN(C)c1nc(N/N=C/c2c[nH]c3ccccc23)nc(N2CCOCC2)n1 | 8.53%
CC(C)CC(=O)Nc1ccc(Nc2ccccc2)cc1 | 1.27%
CCC[C@H](CN[C@@H](CNC)[C@H](C)CC)NCCc1cc(C(F)(F)F)cc(C(F)(F)F)c1 | 0.0872%
CCN(CC)CCCNc1cc2n(c(=O)n1)CCc1cc(OC)c(OC)cc1-2 | 0.0913%
CC(C)(C)C1CCC(=NNC(=O)c2ccco2)CC1 (stereo not shown) | 9.96%
Cc1ccccc1-n1nc(-c2ccc(N)cc2)cc1N | 6.98%
Cc1cccc(OCC(=O)NC(=S)NNC(=O)c2ccncc2)c1 | 10.2%
O=C(CN(Cc1cccs1)S(=O)(=O)c1ccc(S(=O)(=O)NC2CCCCC2)cc1)Nc1ccccc1 | 4.16%
CCc1ccccc1NC(=O)NCCN1CCCCC1 | 8.55%
Cc1ccc2c(c1)c(N=O)c(O)n2Cc1ccc(Cl)cc1 | 3.4%
CC(=O)c1cccc(NC(=O)/C(=C/c2ccco2)NC(=O)c2ccco2)c1 | 10.1%

Structure (SMILES) | hERG current change (%, negative = inhibition) at 1uM
Cc1cccc(NS(=O)(=O)c2ccc3c(c2)oc(=O)n3C)c1C | 11.3%
O=C(OCC(=O)N1CCCC1=O)c1cc(Cl)ccc1O | -5.3%
Cc1ccccc1NS(=O)(=O)c1ccc(OCCNS(C)(=O)=O)cc1 | 9.78%
CCc1ccc(N(CC(=O)NC(C)C)C(=O)CCC(=O)Nc2nccs2)cc1 | 13%
CCc1cc(=O)oc2cc(OC(C)C(=O)O)c(Cl)cc12 (stereo not shown) | 14.3%
COCC(=O)Nc1ccc(Br)cc1 | 5.29%
COc1ccc(NS(=O)(=O)c2ccc3c(c2)N(C(C)=O)CC(C)S3)c(OC)c1 (stereo not shown) | 11.1%
CCCOC(=O)c1ccc(NC(=O)c2c(Cl)ccc(Cl)c2OC)cc1 | 4.49%
CC1(NC(=O)CC[N+](C)(C)CCO)CS(=O)(=O)CC1S(=O)(=O)[O-] (stereo not shown) | 2.79%
CN1C2CCC1CC(NS(=O)(=O)c1cccc(C(F)(F)F)c1)C2 (stereo not shown) | 8.96%
COC(=O)C1=C(c2ccc3ccccc3c2)C[C@@H]2CC[C@H]1N2C(=O)N1CCCCC1 | 10.9%
Cc1noc(C)c1CN(C(=S)NC1CC1)c1ccccc1 | 8.04%
COc1ccc(N=C(C)C2=C(O)COC2=O)cc1 | 4.93%
Cc1[nH]cc(Br)c(=O)c1Oc1ncc(C(F)(F)F)cc1Cl | 4.01%
Cc1ccc(/C=C/C(=O)N2CCN(Cc3ccccc3)CC2)o1 | 4.76%
Cc1ccc(C(C)C)c(OCC(=O)c2c(O)c3ccccc3oc2=O)c1 | -8.35%
CCN(CC)CCN1C(=O)C(O)=C(C(C)=O)C1c1ccccc1[N+](=O)[O-] (stereo not shown) | 13.8%
Cc1ccc(NC(=O)C2C3CCCC2C3c2ccccc2)cc1 (stereo not shown) | 6.16%
Cc1nn(C)c(Cl)c1C(N)=O | 9.89%
COc1ccc(Cc2nnc(N/N=C/c3ccc(O)cc3)[nH]c2=O)cc1OC | 5.73%
COC(=O)C1=C(C)NC(=O)CC1c1ccccc1OC (stereo not shown) | 9.49%
COC(=O)c1ccc(CN2CCC(CO)(Cc3ccccc3Cl)CC2)cc1 | -28.4%
